# Assay results reported in the supplement of paper PMC11417369.
# ± gives the standard deviation of the averaged measurements. This is one part of the list.
# Tested on: PfAP2-G AP2 domain (GST-tagged)
# Test: gcPBM binding intensity (ln(normalized median fluorescence intensity)); higher = stronger DNA binding
# Method in brief: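 Using an Agilent 4 × 180k array, primer-extended double-stranded 36-bp intergenic genomic probes and negative controls were exposed for 1 h to GST-fused P. falciparum DNA-binding domains expressed in E. coli. Binding was carried out in 1× PBS with 1% milk, 0.2 mg/ml BSA, 0.5% salmon testes DNA and 0.03% Triton X-100, and protein was detected with Alexa488 anti-GST antibody and a 488 nm scan. Binding intensity is the highest Masliner-normalised natural-log median intensity across replicate spots of either probe orientation.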
row,Sequence,gcPBM binding intensity (ln)
1,ATATAACTCAAGGGCACACATATACCTTTCCTTTTT [CACACA_site4390],10.4 ± 0.23
2,GGAACGTATATTTTCACACACTCTCAAAAGTACAAG [CACACA_site2301],11.3 ± 0.91
3,TGTGCACGTTCTGTGACACACATTTAAATGTGCTTA [CACACA_site176],10.4 ± 0.21
4,TATACATTATTATTATGTACTTAAATATATATTATA [XGTACX_site5173],11.1 ± 0.83
5,ATTAACACATTTAAGTGTACATATATAAATATATAT [XGTACX_site7098],11.4 ± 0.83
6,TGTTGTATATCTCTATATAGCTATATTGTATATATA [TGCATGCA_negctrl_site323],9.79 ± 0.13
7,TATATTATTTATTAGACACACATTATTAAAATATTT [CACACA_site4737],9.92 ± 0.17
8,CCTTGATATATATAAAGTACATATATATATATATAT [XGTACX_site4325],11.3 ± 0.86
9,GTGAAATTATTTCCGTGTACACATAAATATATATTT [XGTACX_site3989],11.8 ± 0.99
10,AAACTTATAAAAAGTAGTACCATAAAATAATACATA [XGTACX_site6523],11.4 ± 0.81
11,ATATATATATATAGTTGTACTTAATTTTATATGTTA [XGTACX_site5256],11.3 ± 1
12,AAATAATTATTTATCACACATATGTATTTATATATA [CACACA_site4589],10.2 ± 0.21
13,CTTTTTTTAATGATAACACACATGTTGTGCATAGAC [CACACA_site3270],10.3 ± 0.2
14,AATATGTGAATATAATCACACACAATACGGAAACAC [CACACA_site8875],10.7 ± 0.49
15,AAAGAAGGATAATAATGTACAAGCAAAAAAATAAAA [XGTACX_site466],10.8 ± 0.5
16,ACATATATTTCAAAGTGTACGCACAATTTTTTTTAC [XGTACX_site6166],11.7 ± 1
17,AACATATATATAATATGTACATAATATATATAAATG [XGTACX_site1161],11.2 ± 0.69
18,TGCTTATATGTTGTTACACACTAAAATAGTTAGATA [CACACA_site1277],10.1 ± 0.21
19,AATACAGTTAGAGAAAGTACACAACTAATATACATA [XGTACX_site8814],11.4 ± 0.66

row,Sequence,gcPBM binding intensity (ln)
1,TTAGTTTCCCAAATATGTACATAAATATAAATCATA [XGTACX_site2746],11.2 ± 0.64
2,TTATTATTTTTTAACACACACATATATATTATATCT [CACACA_site4906],9.93 ± 0.071
3,GTAAGAACACTTTTGTGGTTACTTAAAAGTGTATAT [GTGCAC_negctrl_site422],10.6 ± 0.41
4,ATTTCAACAAATATAACACACAATGGATAAGAATAA [CACACA_site1974],10.06 ± 0.099
5,TTTTTTTTTTTTGATGCACACACCTGAACGAGTTAA [CACACA_site317],10.2 ± 0.5
6,TATTTTTATATATGACGTACTCTACAATTATTAATG [XGTACX_site5818],11.2 ± 0.78
7,AAAATATGTATGTAAAGTACTAATATACAAATTTTT [XGTACX_site5186],10.9 ± 0.52
8,TTAATTATAAGAAAAAGTACTCATTACATTATAGAA [XGTACX_site678],11.3 ± 0.76
9,ATATAAATATTCCACACACACACAAAAAAAAAAAAA [CACACA_site7678],10 ± 0.33
10,TAGTCGTTTTTTTAATGTACTCACGCATAATATAAT [XGTACX_site6499],11.5 ± 1.1
11,ATTATTTTTTTTGTTACACACATGACTTATTTTTAT [CACACA_site3228],10.19 ± 0.014
12,AAAGGATATAGACACACACACACATATATATATATA [CACACA_site2200],10.3 ± 0.47
13,GTTCAAAATATGAACACACACATATAGATTTATATA [CACACA_site7054],9.995 ± 0.021
14,ATCATTTTTAAAGGAACACACAAAAAAAATTAGAAT [CACACA_site1370],10.2 ± 0.12
15,CATATACATCCACATACACACATACACCCATACACA [CACACA_site5038],10.5 ± 0.49
16,TGAAAAGTAAAATACACACACATAATATAATTTATA [CACACA_site1989],9.91 ± 0.18
17,TGTTATTATTTGTACACACACATATATATCCTTGTT [CACACA_site3616],11.3 ± 0.75
18,GGCAACATTTGAAACACACACACATACAAACAAACA [CACACA_site3307],10.5 ± 0.48
19,TCTATATGTTGATTCACACATAAAGAATAAATAAAA [CACACA_site6017],10.1 ± 0.16

row,Sequence,gcPBM binding intensity (ln)
1,CATACATACCTATATACACACATATAAAATAATATA [CACACA_site7290],10.1 ± 0.23
2,AGTATACAGATATATACACACATATTTATATTTATA [CACACA_site6394],9.89 ± 0.12
3,ATAAATATATTTTATAGTACATAAATATCAAAAAAA [XGTACX_site2334],11 ± 0.61
4,ATTTTGATGCATGGGTTGCACTAACTTTTGCCCAGA,10.3 ± 0.27
5,AAACAATACTGATATTGTACATAATAAAAAAAAATA [XGTACX_site3330],10.9 ± 0.52
6,TATAATATATTATATACACACATTATGAAATCCACA [CACACA_site1330],10.04 ± 0.071
7,AACACGCGCAGACACACACACACACCCACATATATA [CACACA_site2205],10.3 ± 0.25
8,TATATGAACTTATATACACACCATTTTTGTAAATCT [CACACA_site4547],10.03 ± 0.028
9,TACTTAAAATATTTAACAAATAAATAAATAAATAAA [XGTACX_negctrl_site523],9.91 ± 0.58
10,TGAAACCGTTACATGTGTACATATGTTACACATAAT [XGTACX_site7250],11.4 ± 0.71
11,TTCTTTAATACTTATTGTACAATATAATAATCACAA [XGTACX_site6364],11.2 ± 0.81
12,TACTATATAAGTAAGGCATGCATGCCGATTTTTTTA [TGCATGCA_site100],9.715 ± 0.035
13,AAAAAAAAAAAAATATGTACTTATTTTTATGTTAAA [XGTACX_site8802],11.5 ± 0.99
14,ATATTTTTATTTTCTTTACACACCACATAATTTTTT [CACACA_site4060],10.3 ± 0.21
15,ATTAGATATGTAAACTAAAATTATATTCATGATAAT [TGCATGCA_negctrl_site182],9.73 ± 0.16
16,TCTAACAACATGCGCACACACATGAATATTCATATT [CACACA_site1540],10.5 ± 0.33
17,TCACATCTTATATACTGTACATTTCGAATATAAATT [XGTACX_site2508],10.9 ± 0.43
18,TTTCTTTTACATATTTGTACATATATAAATTTATAT [XGTACX_site1787],11 ± 0.44
19,GCCAAAAGGATATGCACACACACACCCATATATATA [CACACA_site2198],10.2 ± 0.16
